Measurements taken from PubChem BioAssay AID504832 (National Center for Advancing Translational Sciences (NCATS), 2011).
The campaign covered roughly 310,000 compounds. About 18,000 (5.8%) were called active. Inconclusive results, whose numbers are uncertain, are shown with a selection of clear calls. The call rests on the fitted dose curve; in most records, active means well fitted inhibition curve with a large enough effect; inconclusive means small, poorly fitted or top-dose-only effect, or another doubt; inactive means no such curve, though single readings can be large or run the other way. No potency is given beside an inconclusive call; the fits are too rough.
On the % scale 0 is the no-effect control and ±100 the full control effect; potency means the concentration at half of the fitted maximal effect; tags describe the fitted curve by direction and shape.

Assay: Primary qHTS for delayed death inhibitors of the malarial parasite plastid, 48 hour incubation
Conditions: P. falciparum luciferase growth in erythrocytes; series mostly up to 28.7 µM; activity change, negative = inhibition: at the top concentration
Summary of the method: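 Compounds are pin-transferred into medium, infected erythrocytes (2% hematocrit, 0.1% parasitemia final) are added, and plates sit one parasite generation at 37 C in 5% CO2. Detection reagent is then added and luminescence measured.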
In the case of `COc1ccccc1Oc1ccc(N/C=C2/CCCC2=O)cc1`, the Potency is reported as inconclusive [inhibitor, single point].
In the case of `O=C(O)/C=C/c1cn(-c2ccccc2)nc1-c1ccc2c(c1)OCCO2`, the “activity change, negative = inhibition” value is reported as inactive: -12.1%.
In the case of `Cc1ccc(NC(=O)CN2C(=O)S/C(=C\c3cccn3C)C2=O)cc1`, the Potency is reported as inconclusive [inhibitor, full curve, poor fit].
For `CC(=O)N1N=C2C3CCN(CC3)C2C1c1ccc(Br)cc1` (stereo unspecified), the “activity change, negative = inhibition” value was inactive: 1.14%.
In the case of `S=c1nc(-c2ccccc2)n(Cc2ccco2)c2c1CCCC2`, the “activity change, negative = inhibition” value is reported as inactive: -0.956%.
In the case of `CCN(CC)CCCNc1nc(-n2nc(C)cc2C)nc2sc3c(c12)CC(C)(C)OC3`, the Potency is reported as inconclusive [inhibitor, single point].
In the case of `COc1ccc2c(c1)C(=NNc1ccc(C(=O)O)cc1)c1cc(OC)ccc1-2`, the Potency is reported as inconclusive [inhibitor, partial curve, poor fit].
With `Cc1cc(C=C2C(=O)NC(=S)NC2=O)c(C)n1-c1ccc2c(c1)OCO2` the “activity change, negative = inhibition” value was inactive: -2.88%.
With `CCCOc1ccc(/C(O)=C2/C(=O)C(=O)N(CCCn3ccnc3)C2c2ccco2)cc1` (stereo unspecified) the “activity change, negative = inhibition” value was inactive: 50.4%.
For `CCCC1(c2ccccc2)NC(=O)N(CC(=O)c2[nH]c(C)c(C(=O)OCC)c2C)C1=O` (stereo unspecified), the Potency was active: 4.15 µM.
With `Cc1cc(C)c(/C=N/NC(=O)c2nnn(-c3nonc3N)c2CN2CCC(C)CC2)c(C)c1` the Potency was inconclusive [inhibitor, single point].
For `C=CCn1c(SCC(=O)N2N=C(c3ccco3)CC2c2ccco2)nnc1-c1ccncc1` (stereo unspecified), the “activity change, negative = inhibition” value was inactive: 27%.
In the case of `CC(C)=CCCC(C)CN1CCC(n2nccc2NC(=O)c2cccnc2)CC1` (stereo unspecified), the Potency is reported as inconclusive [inhibitor, partial curve, poor fit].
With `COc1cccc(C2=CC(=O)C[C@H](c3ccc4c(c3)OCO4)C2)c1` the Potency was inconclusive [inhibitor, single point].
With `CCCOc1ccc(C(=O)NNC(=S)NC(=O)c2cccs2)cc1` the Potency was inconclusive [inhibitor, single point].
For `COc1ccccc1-c1n[nH]c(=S)n1Cc1ccccc1`, the Potency was inconclusive [inhibitor, single point].
With `Cc1ccc(Nc2cc(C)c3c(O)cccc3n2)cc1C` the Potency was active: 2.62 µM.
In the case of `Cc1cccc2sc(N(CCCN(C)C)C(=O)c3ccc(C(=O)c4ccccc4)cc3)nc12`, the Potency is reported as active: 6.57 µM.
For `O=C(O)c1ccccc1OCC1CCCO1` (stereo unspecified), the “activity change, negative = inhibition” value was inactive: 14.5%.
In the case of `CN(C)S(=O)(=O)Oc1ccsc1C(=O)Nc1cccc(Cl)c1`, the Potency is reported as active: 1.65 µM.
In the case of `CN1CCN(C(c2ccccc2)c2ccc(Cl)cc2)CC1` (stereo unspecified), the Potency is reported as inconclusive [inhibitor, partial curve, poor fit].
For `CC(C)(C)c1ccc(S(=O)(=O)N2CCCCC2C(=O)NCc2ccccn2)cc1` (stereo unspecified), the Potency was inconclusive [inhibitor, partial curve].
With `Cc1ccc(C(=O)Nc2cccc3cccnc23)cc1C` the “activity change, negative = inhibition” value was inactive: 55.3%.
In the case of `COc1ccc(CCC(=O)Nc2ccc(OC)c(S(=O)(=O)N3CCCCC3)c2)cc1`, the Potency is reported as inconclusive [inhibitor, single point].
With `NC(=O)C1CCN(C(=O)CCCCCn2c(=O)[nH]c3ccsc3c2=O)CC1` the Potency was inconclusive [inhibitor, single point].
For `O=C1NC(=S)N(c2ccc(F)cc2)C(=O)/C1=C/c1ccco1`, the “activity change, negative = inhibition” value was inactive: -0.141%.
In the case of `CC(=NCc1ccncc1)C1=C(O)c2ccccc2C1=O`, the “activity change, negative = inhibition” value is reported as inactive: 56.7%.
For `CCCCCCCCCCOC(=O)Cn1c(COc2ccc(C)cc2)[n+](C)c2ccccc21`, the Potency was inconclusive [inhibitor, partial curve, poor fit].
With `c1ccc(CCNc2nc(-c3ccncc3)cs2)cc1` the “activity change, negative = inhibition” value was inactive: 86.9%.
In the case of `CC(=O)Nc1ccc(S(=O)(=O)NCC(=O)OCC(=O)N2CCN(c3ccccc3)CC2)cc1`, the “activity change, negative = inhibition” value is reported as inactive: 11.1%.
With `C=CCN(c1ccccc1OC)S(=O)(=O)c1cccc(C(=O)NCc2cccs2)c1` the Potency was active: 11.7 µM.
In the case of `CC1(C)Cc2c(cnn2-c2ccccc2)C(NC(=O)CCN2CCCCO2)C1` (stereo unspecified), the “activity change, negative = inhibition” value is reported as inactive: -13.9%.
For `CCN(CC)S(=O)(=O)c1ccc(C(=O)NCc2ccc3[nH]c4c(c3c2)CCCC4)cc1`, the Potency was inconclusive [inhibitor, single point].
For `Cc1ccc(-c2nc3c(c(=O)[nH]c(=O)n3Cc3ccccc3)n2C)s1`, the “activity change, negative = inhibition” value was inactive: -6.08%.
In the case of `CC(C)(C)NC(=S)N/N=C/c1c(Cl)cccc1Cl`, the Potency is reported as active: 3.7 µM.
For `COc1ccc(C(=O)c2ccc(OC)cc2O)c(O)c1`, the Potency was inconclusive [inhibitor, single point].
With `CC(C)(C)CN1CCNC(=O)C1CC(=O)NCCN1CCCc2ccccc21` (stereo unspecified) the “activity change, negative = inhibition” value was inactive: -17.8%.
In the case of `CN(C)c1nc(N(C)C)n(C(=O)c2ccc(F)cc2)n1`, the Potency is reported as inconclusive [inhibitor, full curve, poor fit].
In the case of `COc1cccc(N2C(C(C)=O)=NN(c3ccccc3)C2c2ccc(N3CCOCC3)cc2)c1` (stereo unspecified), the Potency is reported as active: 13.1 µM.
With `Cc1cccc(C(C)C)c1NC(=O)c1cc2ccccc2o1` the Potency was inconclusive [inhibitor, single point].
For `CCCCCC#CCN1CCN(C23CC4CC(CC(C4)C2)C3)CC1`, the Potency was inconclusive [inhibitor, partial curve, poor fit].
With `Cn1nccc1C(=O)OCC(=O)Nc1cccc(Cl)c1` the “activity change, negative = inhibition” value was inactive: 27.1%.
For `CCc1cccc(C)c1NC(=S)N(CCCN1CCN(C)CC1)Cc1cccs1`, the Potency was inconclusive [inhibitor, single point].
For `Cc1nc(-c2ccccn2)nc(N(C)c2ccccc2)c1Cl`, the Potency was active: 1.65 µM.
With `CN(C)c1ccc(CNC(=O)CCNS(=O)(=O)c2cc(Br)cnc2N)cc1` the “activity change, negative = inhibition” value was inactive: 11.7%.
With `O=C(c1ccc(-c2ccc(Cl)cc2)o1)N1CCN(S(=O)(=O)c2cccs2)CC1` the Potency was inconclusive [inhibitor, single point].
With `COc1cccc2sc(=NC(=O)CS(=O)(=O)c3ccc(Cl)cc3)n(C)c12` the Potency was inconclusive [inhibitor, single point].
In the case of `CCc1ccccc1NC(=O)CC(c1ccc(OC)cc1)n1cccc1` (stereo unspecified), the Potency is reported as inconclusive [inhibitor, single point].
For `c1ccc(-c2cc(N3CCCCCC3)n[nH]2)cc1`, the Potency was inconclusive [inhibitor, single point].
For `CCCCc1ccc(NS(=O)(=O)c2cccc(C(=O)N3CCCN(C)CC3)c2)cc1`, the Potency was inconclusive [inhibitor, single point].
For `CCOC(=O)C1CCN(Cc2nc3ccc([N+](=O)[O-])cc3c(=O)n2-c2ccc(OC)cc2OC)CC1`, the Potency was inconclusive [inhibitor, single point].
With `CS(=O)(=O)c1ccc2nc(NC(=O)c3ccc(=O)[nH]c3)sc2c1` the “activity change, negative = inhibition” value was inactive: 51.4%.
For `CCCCn1c(N)c(N(CCOC)C(=O)c2ccc(-c3ccc(Cl)cc3)o2)c(=O)[nH]c1=O`, the Potency was inconclusive [inhibitor, single point].
For `Cc1ccc(N2CCN(S(=O)(=O)c3ccc4c(c3)NC(=O)C(C)C(=O)N4)CC2C)cc1` (stereo unspecified), the Potency was inconclusive [inhibitor, partial curve, poor fit].
In the case of `CCOC(=O)c1nnn(CC(=O)N2N=C(c3ccc(Cl)cc3)CC2c2ccccc2)c1C(=O)OCC` (stereo unspecified), the Potency is reported as inconclusive [inhibitor, partial curve].
In the case of `CC(C)c1ccc(C2CC(c3ccc(Br)cc3)=NN2C(N)=S)cc1` (stereo unspecified), the Potency is reported as inconclusive [inhibitor, single point].
In the case of `Cc1c(C(=O)O)sc(S(=O)(=O)N2CCN(C(=O)CCc3ccccc3)CC2)c1C(=O)O`, the “activity change, negative = inhibition” value is reported as inactive: -5.56%.
For `CCN(CC(=O)Nc1c(F)cccc1F)C(=O)CNC(=O)c1ccc(C)s1`, the “activity change, negative = inhibition” value was inactive: 91.2%.
For `COc1ccc(/C=N/Nc2nc(-c3cccnc3)nc3ccccc23)c(OC)c1`, the Potency was inconclusive [inhibitor, single point].
For `O=C(COC(=O)C(Cc1ccccc1)NC(=O)c1cccs1)NCc1ccccc1` (stereo unspecified), the “activity change, negative = inhibition” value was inactive: -7.69%.
With `CCOc1ccc(NC(=O)COC(=O)CCCc2c[nH]c3ccccc23)cc1` the Potency was inconclusive [inhibitor, full curve, poor fit].
